These results are taken from the RNAGym collection of RNA variant scans (doi:10.1073/pnas.2313332121).

B1: TPR 5TU (parent)
chain: GGAUCUUCUCGAUCUAACAAAAAAGACAAAUCUGCCACAAAGCUUGAGAGCAUCUUCGGAUGCAGAGGCGGCAGCCUUCGGUGGCGCGAUAGCGCCAACGUUCUCAACUAUGACACGCAAAACGCGUGCUCCGUUGAAUGGAGUUUAUCAUG

Variants at the background level are over-represented here. Bounds are passed on as bounds.

In this data set the parent is B1. As to the kind of experiment: polymerase ribozyme fitness, log enrichment relative to wild type (log ratio); higher = more active; in vitro selection for triplet polymerase activity. In outline:
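After PCR construction and transcription, each subunit's mutant library from a heterodimeric triplet polymerase ribozyme was annealed with a biotinylated primer, the partner subunit and triplets. Incubation was frozen, at −7 °C, and extended constructs were gel-excised, bound to streptavidin beads and amplified by RT-PCR, in one selection round done in triplicate. Fitness is the logarithm of a genotype's enrichment divided by that of the wild type, from inverse-variance-weighted replicate averages of Illumina-sequenced inputs and outputs. The base of the logarithm is 2, and genotypes needed ≥10 input reads and ≥1 read per output.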
Consider C38G U53C G67U A97U A137U, for which the “polymerase ribozyme fitness (log ratio)” value was at most -4.2.
The figure for C36G A60G C79G C116U C118U G141C A150C is at most -4.2; for A39G U53A C85A C125A C132G it is at most -4.2; for A37G A39G U61C A107U it is at most -4.2.
The value for C36G G62A C69A was at most -4.2; that for A39C C75A C93U was at most -4.2.
The value for A40C A66C C103A U135A was at most -4.2; that for C38U C69U C75G was at most -4.2.
Regarding C38A A49U C93G U104A A122G, the “polymerase ribozyme fitness (log ratio)” value was at most -4.2.
Regarding C38A A49C C57G C95A C123U, the “polymerase ribozyme fitness (log ratio)” value was at most -4.2.
As to A39G A91C C105U G128C, the “polymerase ribozyme fitness (log ratio)” value is at most -4.2.
The value for C35G C95G C131U G136A was at most -4.2; that for A39U G50C U56A G59C U61G A106U was at most -4.2; that for A40C U55A A64U G86A was at most -4.2.
The figure for A39G U45A C76A G86C G94U is at most -4.2.
For C36U C93G U148C, the “polymerase ribozyme fitness (log ratio)” value was at most -4.2.
For C35G C93A C114G C118A, the “polymerase ribozyme fitness (log ratio)” value was at most -4.2.
The value for A37G A98U G128U was at most -4.2; that for C35G C79U was at most -4.2; that for C38U G50C C95A G112A was at most -4.2.
The figure for C38G G152C is at most -4.2; for C35U A107G U139C it is at most -4.2.
The figure for A37G U53G G74C U148G is at most -4.2; for C36G A73G G86A G92A A97G U102G C108A C116A C118A A121U U134G it is at most -4.2; for C38U G50A C93G C125A U144G it is at most -4.2.
C36A G86A: the “polymerase ribozyme fitness (log ratio)” value was at most -4.2.
The figure for C38A G48A G50C C57A G81A U151G is at most -4.2; for A37C A39C it is at most -4.2; for A39C U77A G84A C95U A120U it is at most -4.2.
A39C G59U G68A G86U U130A: the “polymerase ribozyme fitness (log ratio)” value is at most -4.2.
As to A37C C43U A52C G84A C129A G133U U146G, the “polymerase ribozyme fitness (log ratio)” value was at most -4.2.
With C38U A41G U56A G84U U90A C108A, the “polymerase ribozyme fitness (log ratio)” value is at most -4.2.
The value for C35U G59C A91U U135G was at most -4.2; that for C36A G71C C79U C96A G126U G140C was at most -4.2; that for A39C C93A U101G was at most -4.2.
On to A39U U56A G88A, for which the “polymerase ribozyme fitness (log ratio)” value is at most -4.2.
On to C38U U55A C87A C125G, for which the “polymerase ribozyme fitness (log ratio)” value is at most -4.2.
The figure for A39U G50A U53G C54G C93U A138U G152U is at most -4.2.
On to A39C G71A U101G G133C, for which the “polymerase ribozyme fitness (log ratio)” value is at most -4.2.
The figure for A39U G71C G88A C103G U135C A150C U151A is at most -4.2.
Consider A39G C87A G88U U101C A107G, for which the “polymerase ribozyme fitness (log ratio)” value is at most -4.2.
The value for A39U A41U G80U C87A C99A A121G was at most -4.2; that for A37C A49C C63G A66U was at most -4.2; that for A37G G59C G88U U90C A107U G136U was at most -4.2.
The figure for A37G C43A C51U C103G C125A is at most -4.2; for C38A G42U U55A C93U U111C G152C it is at most -4.2; for C35G U90G C96U C118U U139A G140A it is at most -4.2.
Consider A39G A40U A41C C76A G94C, for which the “polymerase ribozyme fitness (log ratio)” value is at most -4.2.
With A37U C72G C85G, the “polymerase ribozyme fitness (log ratio)” value was at most -4.2.
The value for A39U G58U G94A A97G G133A was at most -4.2; that for C38U U61A A91C C93U A122G A147U was at most -4.2; that for A37U C63A C69A C76G was at most -4.2.
With A37C G42C G74C C85G C96A A97G U134A U148C, the “polymerase ribozyme fitness (log ratio)” value was at most -4.2.
The figure for A39U G48U C85U A150G is at most -4.2.
The figure for C38U A91C A98U G100A is at most -4.2; for A39C G62C G86U G100U G136C U151C it is at most -4.2; for A37C A40C G50C U56A C79U U135G it is at most -4.2.
The value for A37C C75A C76U U144C was at most -4.2.
Turning to A39U U45A A52C A60U, the “polymerase ribozyme fitness (log ratio)” value was at most -4.2.
In the case of C35U A37C U56A G83U C96G U101G A115C, the “polymerase ribozyme fitness (log ratio)” value was at most -4.2.
On to C35U U44A C95U A106U G126A, for which the “polymerase ribozyme fitness (log ratio)” value is at most -4.2.
The figure for C38A C95A C105G U127C is at most -4.2; for C38U G80U C96G A142C U148G it is at most -4.2.
As to A39U G50C G71C C72U G83A, the “polymerase ribozyme fitness (log ratio)” value is at most -4.2.
The figure for A37C A49C G83U C85A is at most -4.2; for A39G C51G C96U A115C U134C it is at most -4.2.
The figure for A39U U44G G59C A115C is at most -4.2.
As to C36U U45A A52G G86A C87A C93U A107U, the “polymerase ribozyme fitness (log ratio)” value is at most -4.2.
The figure for A40C A49G A64G C85U A137G G152A is at most -4.2; for A39C A49U C76A A121G it is at most -4.2.
Turning to C35U U45G C75U U77A C79G C87G, the “polymerase ribozyme fitness (log ratio)” value is at most -4.2.
As to C35U C87A C123U, the “polymerase ribozyme fitness (log ratio)” value is at most -4.2.
Take C38G G84U G88A U90C A97C U135G A150U: the “polymerase ribozyme fitness (log ratio)” value was at most -4.2.
The value for A39U A47C C87A was at most -4.2.
The figure for C38U A52C C79A is at most -4.2; for C38U A49C G59A G65U it is at most -4.2; for C38U C54U C57U G84U U139G U146G G152U it is at most -4.2.
The value for C38G C75G C93A was at most -4.2; that for A37C G59U A66G U90C was at most -4.2.
With A39C C99G A137G U144A, the “polymerase ribozyme fitness (log ratio)” value was at most -4.2.
As to A37U U53G G88U A106U, the “polymerase ribozyme fitness (log ratio)” value was at most -4.2.
For C36A A52C G80A, the “polymerase ribozyme fitness (log ratio)” value is at most -4.2.
The value for C36A A49G A52C A73G U77C G84A was at most -4.2; that for A39C G59U C93A A107G G126U was at most -4.2.
